Source: PubChem BioAssay AID504332 (National Center for Advancing Translational Sciences (NCATS), 2011)
In all, about 350,000 compounds went through this assay and about 31,000 (8.9%) were called active. The shares of active, inactive and inconclusive entries below differ from those in the screen. Calls come from the whole dose curve; as a rule, active = well fitted inhibition curve with a large enough effect; inconclusive = small, poorly fitted or top-dose-only effect; inactive = no such curve, though single readings can be large or run the other way. A potency beside an inconclusive call is a rough fit, not a confirmed value.

molecular target: Histone-lysine N-methyltransferase EHMT2 (Homo sapiens) (UniProt Q96KQ7); test: qHTS Assay for Inhibitors of Histone Lysine Methyltransferase G9a; conditions: G9a H3K9 monomethylation, AlphaScreen, 2 h; activity, negative = inhibition: at 59 µM (top of the series) unless noted; note: nearly all actives have a fitted effect of over 75% in size
Procedure, shortened: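 Quantitative HTS format: methyltransferase activity on a biotin-tagged H3K9 peptide is measured by AlphaScreen, using a rabbit anti-monomethyl-H3K9 antibody with streptavidin donor and anti-IgG acceptor beads. Final levels are 20 nM enzyme, 500 nM peptide, 20 uM SAM; 2 h RT.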
% is set by controls: 0 for no effect and ±100 for the full control effect; potency is the fitted concentration of half-maximal effect; tags give direction and shape of the fitted curve.

Chain of UniProt Q96KQ7 (Q96KQ7 whole entry, looked up): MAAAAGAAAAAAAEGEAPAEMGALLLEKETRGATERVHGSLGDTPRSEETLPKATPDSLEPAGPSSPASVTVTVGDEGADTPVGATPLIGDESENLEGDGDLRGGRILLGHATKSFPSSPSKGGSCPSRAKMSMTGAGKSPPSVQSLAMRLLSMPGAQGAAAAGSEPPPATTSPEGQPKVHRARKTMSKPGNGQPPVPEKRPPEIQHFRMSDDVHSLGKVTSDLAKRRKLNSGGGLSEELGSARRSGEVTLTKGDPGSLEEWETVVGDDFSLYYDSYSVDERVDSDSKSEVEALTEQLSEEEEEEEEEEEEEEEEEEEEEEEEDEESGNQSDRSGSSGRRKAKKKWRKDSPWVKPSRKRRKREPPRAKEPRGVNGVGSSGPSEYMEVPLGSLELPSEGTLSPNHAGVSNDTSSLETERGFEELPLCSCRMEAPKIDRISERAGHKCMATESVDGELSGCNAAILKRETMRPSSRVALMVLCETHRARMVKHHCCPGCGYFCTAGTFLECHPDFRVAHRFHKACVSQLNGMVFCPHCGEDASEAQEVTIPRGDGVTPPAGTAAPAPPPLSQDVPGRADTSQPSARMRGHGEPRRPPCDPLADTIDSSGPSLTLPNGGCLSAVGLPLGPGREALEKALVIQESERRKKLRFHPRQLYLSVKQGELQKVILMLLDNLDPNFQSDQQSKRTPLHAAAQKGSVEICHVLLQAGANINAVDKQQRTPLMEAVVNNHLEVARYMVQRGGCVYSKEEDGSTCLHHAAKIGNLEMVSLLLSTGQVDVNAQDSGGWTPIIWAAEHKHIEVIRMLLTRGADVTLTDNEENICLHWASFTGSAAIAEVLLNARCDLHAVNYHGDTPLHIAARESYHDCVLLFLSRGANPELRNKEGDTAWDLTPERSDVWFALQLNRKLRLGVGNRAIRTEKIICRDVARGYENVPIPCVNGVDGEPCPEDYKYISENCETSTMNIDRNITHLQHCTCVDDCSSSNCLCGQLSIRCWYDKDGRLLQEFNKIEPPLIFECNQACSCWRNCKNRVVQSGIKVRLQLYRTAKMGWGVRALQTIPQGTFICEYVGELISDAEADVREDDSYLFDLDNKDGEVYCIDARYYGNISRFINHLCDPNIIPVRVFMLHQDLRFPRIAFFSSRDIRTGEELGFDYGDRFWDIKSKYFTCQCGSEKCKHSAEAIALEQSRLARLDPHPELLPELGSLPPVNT

| SMILES | Potency | activity, negative = inhibition |
| --- | --- | --- |
| CCOc1ccc(NC(=S)NCc2ccc3[nH]c(C)cc3c2)cc1 | inconclusive: 50.1 µM [inhibitor, single point] | – |
| O=C(COC(=O)c1cccc(C(=O)OCC(=O)NC2CC2)n1)NC1CC1 | active: 14.1 µM | – |
| CC(NC(=O)C(=O)N1CCCCC1)C(c1cccs1)N1CCN(c2ccccc2)CC1 (stereo not given) | inconclusive: 89.1 µM [inhibitor, single point] | – |
| CCOc1c2ccc(C(=O)NCc3cc(C(F)(F)F)cc(C(F)(F)F)c3)cc2nn1CCOC | inconclusive: 100 µM [inhibitor, single point] | – |
| CNC(=S)NNC(=O)COc1ccc(C)c(C)c1 | active: 31.6 µM | – |
| Cc1ccc(NC(=O)N2CCc3c([nH]c4ccccc34)C2c2ccccc2F)c(Cl)c1 (stereo not given) | inconclusive: 10 µM [inhibitor, partial curve, poor fit] | – |
| O=C(Nc1ccccc1C(=O)O)c1ncn[nH]1 | active: 10 µM | – |
| CC1CCCC/C1=N\NS(=O)(=O)c1ccc(Br)cc1 (stereo not given) | active: 3.55 µM | – |
| O=[N+]([O-])c1ccc(S(=O)(=O)c2ccccc2)nc1 | active: 39.8 µM | – |
| COc1ccc(C(C(=O)NCc2ccccc2)N(C(=O)Cn2nnc3ccccc32)c2ccc(OC)cc2)cc1 (stereo not given) | inactive | – |
| O=C(NCc1ccccc1F)C(=O)NCC(c1ccco1)S(=O)(=O)c1ccccc1 (stereo not given) | inactive | – |
| C/C(=N\NS(=O)(=O)c1ccc(C)cc1)c1ccc(C)o1 | inconclusive: 0.251 µM [inhibitor, partial curve, poor fit] | – |
| Cc1nn(C)c(C)c1NC(=O)c1cnn2c(C(F)F)cc(-c3ccccc3)nc12 | inactive | – |
| COC(=O)C1=C(C)NC2=C(C(=O)c3ccccc32)C1c1ccc(-c2ccc(C(=O)O)cc2)o1 (stereo not given) | inconclusive: 2.82 µM [inhibitor, partial curve, poor fit] | – |
| Cc1cccc(N2CCN(C(=O)c3cccc(-n4c(C)nc5cccnc54)c3)CC2C)c1 (stereo not given) | inconclusive: 3.98 µM [inhibitor, partial curve, poor fit] | – |
| Cc1ccc(S(=O)(=O)NC(C(=O)OCC(=O)NC(=O)c2cccn2C)C(C)C)cc1 (stereo not given) | inconclusive: 79.4 µM [inhibitor, single point] | – |
| S=C(Nc1ccccc1Cl)N1CCOCC1 | inactive | – |
| Cc1ccc(CNC(=O)CCCOc2cc(=O)n(C)c3ccccc23)o1 | – | inconclusive: -97.2% [inhibitor] |
| CCn1nccc1C(=O)Nc1ccccc1OC | – | inactive: -0.263% [at 0.501 µM] |
| COc1ccc(NS(=O)(=O)c2cc(-c3cnc(C4CC4)o3)ccc2C)cc1 | active: 50.1 µM | – |
